Here are results for 42 molecules from ChEMBL document CHEMBL4888484, “Replenishing the malaria drug discovery pipeline: Screening and hit evaluation of the MMV Hit Generation Library 1 (HGL1) against asexual blood stage Plasmodium falciparum ,using a nano luciferase reporter read-out” (2022).

Molecules are shown by their SMILES. Out of some 150,000 compounds screened, about 540 (0.36%) showed an effect of 50% or more. Some of the results follow.

In the assay the test system is Plasmodium falciparum. The experiment in a line: Primary screen in NF54 nanoGlo assay, in single point, at 2uM, 72h; a lower Z score goes with more inhibition. Type of assay: functional, Erythrocyte. Conditions: timepoint 72 hour.
`C=CCc1cc(CN2CCC[C@H]2C(=O)NC)cc(OCC)c1OC`: the % Inhibition (usually the change of the read-out against control, counted positive when it falls) is on record as -14% and the Z score was determined as 1.78.
The matching figures for `O=C(CCN1CCN(CC(=O)N2CCCc3ccccc32)CC1)NCC1CCCCC1`: -5% and 0.73.
For `N#Cc1cccc(-c2nc(C3CC3)nn2-c2ccccn2)c1`, the “% Inhibition” value was -7% and the Z score is 1.25.
Consider `CC1CCN(c2nc(N3CCN(C)CC3)nc3c2CN(S(=O)(=O)c2cccc(Cl)c2)CC3)CC1`, for which the “% Inhibition” value is 4% and the Z score is -0.69.
On to `O=C(Nc1cccc(COc2cccc(F)c2)c1)c1cc[n+]([O-])cc1`, for which the “% Inhibition” value is given as -9% and the Z score stood at 0.98.
On to `Cc1cnc(-c2ccc(C(=O)N(C)C[C@@]3(C)CCN(C)C3)cc2)nc1N(C)C`, for which the “% Inhibition” value is listed as -4% and the Z score is on record as 0.53.
Regarding `Cc1ccc(-c2nnc([C@H](C)N3CCCN(c4ccccc4C#N)CC3)o2)cc1`, the “% Inhibition” value is listed as -6% and the Z score stood at 0.73.
For `COc1ccc(C(=O)N2CCn3c2nc2ccccc2c3=O)cc1`, the “% Inhibition” value is -2% and the Z score amounted to 0.28.
Turning to `CNc1nc(C(=O)N(CCOc2ccccc2)C[C@H]2CCCO2)cs1`, the “% Inhibition” value was -13% and the Z score was determined as 1.16.
In the case of `O=S(=O)(c1ccccc1Br)N1C2CCC1CC(n1nccn1)C2` (centres undefined), the “% Inhibition” value is given as -12% and the Z score is reported as 1.92.
The like results for `c1ccc2c(N3CCCCCC3)nnc(-c3nc(C4CC4)no3)c2c1` were, in that order, 0% and 0.04.
The like results for `Cc1cccc2ncnc(NCc3ccc(N4CCNC(=O)C4)cc3)c12` were, in that order, 3% and -0.53.
The like results for `Cc1ccc2[nH]c3c(=O)n(C)nnc3c2c1` were, in that order, -10% and 2.09.
As for `Cc1cc(C(=O)N2C[C@H]3COCC[C@@]3(O)[C@@H]3COCC[C@@H]32)ccc1Cl`, the “% Inhibition” value came to 2% and the Z score was -0.33.
As for `CC(CCc1ccccc1)NC(=O)NC1CC(=O)N(c2cccc(F)c2)C1` (centres undefined), the “% Inhibition” value was found to be 27% and the Z score is given as -3.48.
In the case of `CCOc1ccc(C(C)(C)C(=O)N[C@H]2CCC(=O)NC2(C)C)cc1OCC`, the “% Inhibition” value is recorded as 13% and the Z score is recorded as -1.96.
`COc1cccc(NC(=O)Cn2ccc3ccc(-c4nnc(C)o4)cc32)c1`: the “% Inhibition” value is given as 7% and the Z score is given as -0.81.
For `O=C(Cn1nc2ncccn2c1=O)N1CCCCCC1`, the “% Inhibition” value is listed as -12% and the Z score was 1.55.
In the case of `CCN(CC(=O)Nc1c(Cl)cccc1Cl)S(=O)(=O)N1CCOCC1`, the “% Inhibition” value came out at 3% and the Z score is -0.52.
The matching figures for `Cc1ccoc1C(=O)NC1CCN(C2Cc3ccccc3C2O)CC1` (centres undefined): -8% and 1.03.
For the molecule `O=C1CC2(CCCCC2)CC(=O)N1C[C@H](O)c1ccccc1`, the “% Inhibition” value is -4% and the Z score worked out at 0.8.
As for `O=C(N[C@H]1CO[C@H]2[C@@H]1OC[C@@H]2Nc1nccc(-c2ccc(-c3ccccc3)cc2)n1)c1ccccc1`, the “% Inhibition” value was -17% and the Z score was determined as 2.68.
Consider `Cc1c(CC(=O)N2CCNCC2)c2c(n1Cc1ccccc1F)CCCC2=O`, for which the “% Inhibition” value was -11% and the Z score was 1.39.
The matching figures for `O=C(Nc1ccccc1Cl)C1C2CCC3C(CCC21)C3(Cl)Cl` (centres undefined): -35% and 4.16.
As to `Cc1cc(C)cc(NC(=O)N2C[C@H]3CC[C@H]2C3)c1`, the “% Inhibition” value is -2% and the Z score is 0.38.
The matching figures for `CCc1ccc(C(=O)N2CCC3(CC2)OC[C@@H](C(=O)NC2CC2)N3C(=O)c2cccc(C)c2)cc1`: -5% and 0.55.
For `CC1CC(c2cccc(F)c2)N(C(=O)C(C)n2cncn2)C1` (centres undefined), the “% Inhibition” value was -13% and the Z score amounted to 1.98.
The like results for `CC(OC(=O)c1cc(S(C)(=O)=O)ccc1Cl)C(=O)NC(C)(C#N)C(C)C` (centres undefined) were, in that order, -3% and 0.38.
With `COc1ccc(OC)c2c1cc(C(=O)N1CCN(Cc3ccccc3)CC1)n2C`, the “% Inhibition” value was -12% and the Z score was determined as 1.48.
For `CCC[C@H]1CN(C(=O)c2ccccc2CCc2cccc(OC)c2)C[C@@H]1N`, the “% Inhibition” value was -5% and the Z score is reported as 0.71.
For the molecule `CC(C)CCC(=O)Nc1ccc(N(C)C)cn1`, the “% Inhibition” value is -5% and the Z score is recorded as 0.57.
In the case of `Nc1ccc(OC(F)(F)C(F)F)c(N)c1`, the “% Inhibition” value is -3% and the Z score is recorded as 0.41.
As to `CC[C@H](C)N(Cc1ccc(Cl)cc1)C(=O)CCc1cc(O)no1`, the “% Inhibition” value was -7% and the Z score is reported as 0.92.
As for `CCOc1cc([C@H]2c3c(-c4ccccc4)nnc(O)c3Nc3nnnn32)ccc1O`, the “% Inhibition” value was -15% and the Z score stood at 2.07.
As to `Nc1nc(N2CCN(Cc3ccc(F)cc3)CC2)cc([C@H]2C[C@@H](N)C2)n1`, the “% Inhibition” value worked out at 16% and the Z score is given as -2.35.
As for `COc1nccc2c(NCc3cn(C(C)(C)C)nn3)cccc12`, the “% Inhibition” value worked out at 5% and the Z score is on record as -1.
Turning to `O=S(=O)(c1cccnc1)N1CCN(Cc2ccc3cn[nH]c3c2)CC1`, the “% Inhibition” value is on record as -1% and the Z score was determined as 0.15.
In the case of `CN(C)C[C@@H](c1ccccc1)N(C)C(=O)Nc1cccc(-c2nnn(C)n2)c1`, the “% Inhibition” value is reported as -1% and the Z score is reported as 0.18.
Turning to `CC(C(=O)N1CCC(c2nnc[nH]2)C1)c1ccc(Cl)c(Cl)c1` (centres undefined), the “% Inhibition” value is -10% and the Z score is recorded as 1.76.
For the molecule `CC1CCCCC1N(C)C(=O)Cn1cnnc1Nc1cccnc1` (centres undefined), the “% Inhibition” value is -11% and the Z score is 1.02.
As for `CC(=O)Nc1nc(C(=O)NC[C@H](C)C(=O)OC(C)C)cs1`, the “% Inhibition” value is recorded as 8% and the Z score is -0.96.
Regarding `CCc1noc(CCNC(=O)[C@H](C)n2cccn2)n1`, the “% Inhibition” value stood at 2% and the Z score was -0.2.
